Source: paper PMC12528901
Results are given in words; binding and its absence hold for the method and conditions named. In cells and extracts the contact can be indirect. Some binding calls cover weakened binding; strength is not graded here. For some assays here: Where a sequence is shown, tags or fusion partners need not be part of it.

Protein sequences, listed by entry. Tags and fused reporters are not part of them.
UniProt Q9ESG8: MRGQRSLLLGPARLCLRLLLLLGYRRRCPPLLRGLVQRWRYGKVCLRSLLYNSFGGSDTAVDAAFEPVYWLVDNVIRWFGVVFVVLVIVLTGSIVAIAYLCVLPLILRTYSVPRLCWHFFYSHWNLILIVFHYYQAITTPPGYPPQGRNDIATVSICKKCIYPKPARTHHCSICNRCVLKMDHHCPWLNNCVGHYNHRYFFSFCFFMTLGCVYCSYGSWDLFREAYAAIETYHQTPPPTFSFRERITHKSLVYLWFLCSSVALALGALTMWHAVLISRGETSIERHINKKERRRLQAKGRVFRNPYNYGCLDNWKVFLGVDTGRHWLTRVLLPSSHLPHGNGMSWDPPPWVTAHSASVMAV
UniProt P59268: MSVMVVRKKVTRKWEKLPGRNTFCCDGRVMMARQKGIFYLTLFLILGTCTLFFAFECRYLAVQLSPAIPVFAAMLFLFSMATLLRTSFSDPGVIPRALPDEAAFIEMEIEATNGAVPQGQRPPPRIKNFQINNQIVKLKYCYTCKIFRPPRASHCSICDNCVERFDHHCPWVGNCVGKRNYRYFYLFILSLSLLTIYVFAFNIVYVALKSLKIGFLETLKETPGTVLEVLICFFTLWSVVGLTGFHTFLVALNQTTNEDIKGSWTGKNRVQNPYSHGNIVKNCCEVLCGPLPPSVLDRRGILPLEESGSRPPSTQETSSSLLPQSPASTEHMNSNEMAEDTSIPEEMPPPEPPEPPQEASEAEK
UniProt Q7Z5G4: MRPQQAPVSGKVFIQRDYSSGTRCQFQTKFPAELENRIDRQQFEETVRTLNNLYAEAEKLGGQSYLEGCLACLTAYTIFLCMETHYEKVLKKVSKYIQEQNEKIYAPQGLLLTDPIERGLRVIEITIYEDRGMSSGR

Experiments:
[1] = biological target: T1, HA-tagged mouse Zdhhc1 (mouse) (UniProt Q8R0N9); test: condition: only in 293T control cells (endogenous ZDHHC5 not disrupted); co-IP; as a1, in unmodified 293T control cells only (endogenous ZDHHC5 present)
T1 sequence: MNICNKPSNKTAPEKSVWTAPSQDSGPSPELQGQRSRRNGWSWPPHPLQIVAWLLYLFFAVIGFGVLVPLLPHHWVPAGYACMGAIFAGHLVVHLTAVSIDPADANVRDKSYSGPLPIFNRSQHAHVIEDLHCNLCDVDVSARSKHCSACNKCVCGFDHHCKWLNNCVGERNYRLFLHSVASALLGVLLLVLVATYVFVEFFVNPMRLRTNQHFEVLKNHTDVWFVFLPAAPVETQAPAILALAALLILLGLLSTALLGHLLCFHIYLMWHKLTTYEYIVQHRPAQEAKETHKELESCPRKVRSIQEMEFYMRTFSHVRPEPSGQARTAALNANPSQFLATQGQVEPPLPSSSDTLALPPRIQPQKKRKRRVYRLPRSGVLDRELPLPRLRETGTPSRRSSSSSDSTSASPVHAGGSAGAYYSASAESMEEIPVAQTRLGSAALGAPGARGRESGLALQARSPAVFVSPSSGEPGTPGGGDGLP

[2] = biological target: HA-Zdhhc5^RNYA (mouse Zdhhc5 Arg147Ala) (mouse) (UniProt Q8VDZ4); test: co-IP; HA-tagged mouse Zdhhc proteins transfected into 293T ZDHHC5 KO and control cells; lysis in 50 mM Tris-HCl pH 7.4, 150 mM NaCl, 2 mM EDTA, 1% DDM; anti-HA magnetic beads overnight at 4 °C; washes in TBS with 0.5% DDM; blots for endogenous GOLGA7 or ZDHHC9
[3] = biological target: T2, HA-Zdhhc5^ΔN-term (mouse Zdhhc5 lacking the N terminus and transmembrane domains) (mouse) (UniProt Q8VDZ4); test: as above
T2 sequence: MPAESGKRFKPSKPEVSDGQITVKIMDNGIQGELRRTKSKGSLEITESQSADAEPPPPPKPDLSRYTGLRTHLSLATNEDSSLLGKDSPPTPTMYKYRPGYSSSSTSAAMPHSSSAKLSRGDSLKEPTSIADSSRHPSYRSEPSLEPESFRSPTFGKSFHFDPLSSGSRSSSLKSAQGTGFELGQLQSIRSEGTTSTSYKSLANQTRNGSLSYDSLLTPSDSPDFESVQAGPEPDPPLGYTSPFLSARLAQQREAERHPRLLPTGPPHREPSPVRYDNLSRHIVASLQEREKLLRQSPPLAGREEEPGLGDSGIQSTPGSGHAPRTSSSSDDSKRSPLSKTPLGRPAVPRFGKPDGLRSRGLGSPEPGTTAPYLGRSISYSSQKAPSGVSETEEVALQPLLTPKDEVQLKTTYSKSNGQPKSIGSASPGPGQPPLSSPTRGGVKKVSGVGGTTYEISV

[4] = biological target: T3, HA-tagged mouse Zdhhc15 (mouse) (UniProt Q8BGJ0); test: as above
T3 sequence: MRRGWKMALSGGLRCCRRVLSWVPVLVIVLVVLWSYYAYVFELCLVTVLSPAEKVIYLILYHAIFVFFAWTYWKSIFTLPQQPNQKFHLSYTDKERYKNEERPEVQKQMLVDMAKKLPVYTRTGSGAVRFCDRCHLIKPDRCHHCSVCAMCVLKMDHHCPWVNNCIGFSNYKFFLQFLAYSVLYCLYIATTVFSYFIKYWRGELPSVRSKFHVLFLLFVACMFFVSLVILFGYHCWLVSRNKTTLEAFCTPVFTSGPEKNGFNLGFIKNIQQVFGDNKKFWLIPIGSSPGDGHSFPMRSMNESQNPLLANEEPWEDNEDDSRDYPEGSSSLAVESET

[5] = biological target: HA-tagged mouse Zdhhc16 (mouse) (UniProt Q9ESG8); test: as above
[6] = biological target: T4, HA-tagged mouse Zdhhc19 (mouse) (UniProt Q810M5); test: as above
T4 sequence: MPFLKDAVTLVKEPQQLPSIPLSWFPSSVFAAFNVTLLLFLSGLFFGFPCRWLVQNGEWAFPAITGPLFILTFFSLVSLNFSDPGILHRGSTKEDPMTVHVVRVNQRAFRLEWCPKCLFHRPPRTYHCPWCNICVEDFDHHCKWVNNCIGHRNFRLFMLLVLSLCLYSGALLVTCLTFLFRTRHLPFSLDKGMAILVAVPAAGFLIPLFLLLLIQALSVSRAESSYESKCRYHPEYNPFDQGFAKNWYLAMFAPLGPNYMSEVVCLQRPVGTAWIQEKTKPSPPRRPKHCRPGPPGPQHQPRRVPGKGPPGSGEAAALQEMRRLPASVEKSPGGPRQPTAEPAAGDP

[7] = biological target: HA-tagged mouse Zdhhc5, wild type (mouse) (UniProt Q8VDZ4); test: as above
[8] = biological target: HA-tagged mouse Zdhhc9 (mouse) (UniProt P59268); test: as above

- binding [1]: no binding
- binding [2]: no binding
- binding [3]: no binding
- binding [4]: no binding
- binding [5]: no binding
- binding [6]: no binding
- binding [7]: binds
- binding [8]: binds
Substance: endogenous human golgin A7 (GOLGA7) (from UniProt Q7Z5G4 1-137)
